Measurements from article PMC6919601, “Identification of Plasmodium dipeptidyl aminopeptidase allosteric inhibitors by high throughput screening” (PLoS ONE, 2019).
The campaign covered roughly 110,000 compounds. About 230 (0.21%) showed an effect of 50% or more. Some of the results follow.

What follows are compounds tested against DPAP1 (Plasmodium falciparum, UniProt Q8IIJ9) (assay: primary screen, percent inhibition; read by cleavage of a fluorogenic dipeptide substrate; higher = more effect of the substance).
Set-up: species or system P. falciparum D10 trophozoite lysates; single well
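Further: 30 min substrate incubation versus DMSO and 10 µM JCP410 controls.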

Chain of DPAP1 (Q8IIJ9 whole entry, looked up): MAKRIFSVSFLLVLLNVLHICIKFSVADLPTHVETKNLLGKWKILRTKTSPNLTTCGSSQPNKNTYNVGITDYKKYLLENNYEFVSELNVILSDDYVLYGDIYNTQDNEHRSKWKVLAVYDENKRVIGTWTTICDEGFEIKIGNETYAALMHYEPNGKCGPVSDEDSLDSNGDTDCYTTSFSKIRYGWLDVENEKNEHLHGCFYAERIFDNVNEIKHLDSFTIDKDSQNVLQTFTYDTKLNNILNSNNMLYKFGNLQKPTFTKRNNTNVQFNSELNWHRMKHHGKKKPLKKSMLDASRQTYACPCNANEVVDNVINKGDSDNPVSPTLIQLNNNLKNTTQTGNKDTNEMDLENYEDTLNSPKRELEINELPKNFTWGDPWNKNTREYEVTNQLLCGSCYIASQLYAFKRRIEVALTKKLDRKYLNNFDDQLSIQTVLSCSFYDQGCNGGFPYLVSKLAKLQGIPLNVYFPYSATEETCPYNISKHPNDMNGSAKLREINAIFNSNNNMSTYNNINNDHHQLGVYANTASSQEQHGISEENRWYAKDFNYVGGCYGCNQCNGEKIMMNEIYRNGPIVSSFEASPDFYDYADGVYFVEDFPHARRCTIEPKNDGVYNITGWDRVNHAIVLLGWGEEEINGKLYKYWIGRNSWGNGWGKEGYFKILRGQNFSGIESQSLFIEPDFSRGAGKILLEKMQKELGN

SMILES | % Inhibition @ 10 uM [%]
CCc1ccc(NCc2nc(-c3ccccc3)no2)cc1 | 1.86
COc1ccc(N2Cc3cc(C)c(C)cc3C2)c(OC)c1 | 3.29
Cc1ccc(CCNC(=O)C2CCN(c3nn4c(=O)cc(C)nc4s3)CC2)cc1 | 4.55
O=C(O)C(Cc1ccc(F)cc1)NS(=O)(=O)c1ccc2oc3ccccc3c2c1 (centres unmarked) | 1.76
CCCCNC(=O)c1cccc2c1C(=O)N(CCC)C2 | -4.14
O=C(NC1CCCCC1)c1ccccc1NC(=O)C1CC=CCC1C(=O)O (centres unmarked) | 2.48
O=C(CS(=O)(=O)c1ccc(C(F)(F)F)cc1Cl)Nc1cccc(C(=O)O)c1 | -4.97
COc1cc(OC)c(OC)cc1/C=C1\N=C(c2ccccc2Br)OC1=O | -25.1
COc1ccc(NC(=O)c2nn(C)cc2Br)cc1 | -4.43
COCCN1C(=O)C(O)=C(C(=O)c2ccc(OC)c(C)c2)C1c1cccs1 (centres unmarked) | 9.94
CC(C)(C)c1ccc(OCCSc2nc(-c3ccco3)nc3cc(=O)[nH]n23)cc1 | 2.82
CC(C)c1ccc(-c2c(NC3CCCCC3C)c(=O)c2=O)cc1 (centres unmarked) | -5.3
Cc1ccc(S(=O)(=O)C2(C(=O)N3CCC(Cc4ccccc4)CC3)CC2)cc1 | -1.92
CCOC(=O)N1CCN(C(=O)C2c3ccccc3C(=O)N3CCc4ccccc4C23)CC1 (centres unmarked) | -1.29
CC1CCCN(Cc2ccnc3ccccc23)C1 (centres unmarked) | -5.31
N#CCNC(=O)C(CC1CCCCC1)C(=O)Nc1cccc(Oc2ccccc2)c1 (centres unmarked) | -5.21
O=c1oc2ccccc2cc1-c1nc(-c2cccs2)cs1 | -14.4
CC(NC(=O)Cn1nc(Cc2cccnc2)c2ccccc2c1=O)c1ccc2c(c1)OCCO2 (centres unmarked) | 5.09
CC1=CC2=NC(=O)/C(=C\c3ccc(OCCOc4ccc(Cl)c(C)c4)cc3)C(=N)N2O1 | 0.317
O=C(NCc1ccc2c(c1)OCO2)c1cc(-n2cnnc2)ccc1Cl | -2.41
O=c1/c(=C\c2ccccc2C(F)(F)F)sc2nc3ccccc3n12 | 1.84
Cn1cccc1C1C(C#N)=C(N)OC2=C1C(=O)CCC2 (centres unmarked) | -1.98
COc1ccc(S(=O)(=O)NC(C)C)cc1C(=O)NC1CCCCC1 | -2.82
N#CC1=C(N)OC2=C(C(=O)CCC2)C1c1ccc(OCc2ccccc2)cc1 (centres unmarked) | 2.36
O=C(CCc1nnc2ccc(N3CCOCC3)nn12)N1CCN(C(=O)c2ccco2)CC1 | -2.55

SMILES | % Inhibition @ 10 uM [%]
N#Cc1c(NC(=O)c2ccccc2C(=O)O)sc2c1CCCC2 | -4.61
COc1cc(CNCc2c(C(=O)O)c(C)n(Cc3ccc(F)cc3)c2C)cc(OC)c1OC | 1.41
Cc1nn(C)c(C)c1NC(=O)/C=C/c1ccco1 | 1.88
O=C(NCc1ccc(F)cc1)C1CCC(=O)N1C1CCCCC1 (centres unmarked) | -0.0542
Cn1cnc([N+](=O)[O-])c1C(=O)Nc1ccccc1 | -3.85
CCN1C(=O)S/C(=C/c2cn(CC)c3ccccc23)C1=O | -0.519
CCCn1c(SC/C=C(/C)Cl)nc2c1c(=O)[nH]c(=O)n2C | -0.13
CCOc1ccc(-n2c(SCC(N)=O)nnc2-c2c[nH]c3ccccc23)cc1 | 2.12
COc1c(Cl)cnn(-c2cccc(C)c2)c1=O | -9.3
FC(F)(F)c1cccc(-n2nnc(-c3ccccc3Cl)n2)c1 | -9.21
Cc1ccc2c(CNCCc3ccc(Cl)cc3)c(C(=O)O)n(C)c2c1 | -0.118
CCOC(=O)c1[nH]c(C)c(C(=O)N2CC3CC(C2)c2cccc(=O)n2C3)c1C (centres unmarked) | 4.88
COc1ccccc1CNC(=O)C1CCCN1S(=O)(=O)c1cccc2cccnc12 (centres unmarked) | 0.981
CCN(CC)CCNS(=O)(=O)c1c(C)c(C)cc2nsnc12 | -1.33
C=CCn1c(SC(C)C)nc2sc(C)c(C)c2c1=O | 2.38
Cc1ccc(S(=O)(=O)/N=C(/N=S(=O)(c2ccc(Br)cc2)c2ccc(Br)cc2)c2ccccc2)cc1 | -5.33
CCCCCCn1c(CN2CCN(C(=O)c3ccco3)CC2)nc2c1c(=O)n(C)c(=O)n2C | -3.23
Cc1ccc2c(CNCc3ccc(C)o3)c(C(=O)O)n(Cc3ccc(F)cc3Cl)c2c1 | -0.177
CC(C)(CO)NCc1cccc(OCc2ccc(Cl)cc2)c1 | -9.7
COC(=O)/C(C#N)=C/c1ccc[nH]1 | -3.78
CCc1ccccc1-c1ccc(C(=O)N[C@@H](CC(C)C)C(=O)NCC#N)cc1 | -1.41
Cc1ccc(-n2ncc(C(=O)NCCc3ccsc3)c2C2CCNCC2)cc1C | -4.59
Cn1c2c(c(=O)n(C)c1=O)CN(CCCN1CCCC1=O)CN2 | -1.08
CCc1nn(CCCC(=O)NCc2ccccc2Cl)c(=O)c2cc3occc3n12 | 4.55
Cc1ccc(S(=O)(=O)N2CCN(c3ccccc3)CC2)cc1 | 0.827

SMILES | % Inhibition @ 10 uM [%]
CCOc1ccccc1OCCCN1CCCC1 | -3.78
CCNC(=O)N(CC)Cc1nc(-c2ccc(OC)cc2)no1 | 1.67
COc1ccccc1C1=NN(C(=O)c2ccccc2)C(c2ccco2)C1 (centres unmarked) | -3.1
O=C(c1nnc(-c2ccc(CN3CCc4ccccc4C3)cc2)o1)N1CCN(c2ccccn2)CC1 | 4.95
CC(C)=NOC(=O)CCS(=O)(=O)c1nc(-c2ccc3c(c2)OCO3)cc(C(F)(F)F)n1 | 4.33
CCOC(=O)c1c(/N=C/N(C)C)c2cc([N+](=O)[O-])cnc2n1C | -1.42
COc1cc(OC)cc(C(=O)N2CCN(Cc3ccccc3Cl)CC2)c1 | -5.23
c1ccc(C2=NC(c3ccccc3)c3c(ccc4ccccc34)N2)cc1 (centres unmarked) | -4.01
CC1CCc2c(sc3nc(-c4ccc(Cl)cc4)cn23)C1 (centres unmarked) | -4.17
Cc1nnc(O)c2c1nnn2Cc1ccc(F)cc1 | -1.71
COc1cc(CNc2ccc3[nH]c(O)nc3c2)cc(Br)c1OCC(=O)NC(C)(C)C | 1.64
O=C1C=CC(=NOC(=O)c2ccccc2Br)C=C1 | 18.5
CCOc1ccc(C2CNC(=O)C2)cc1 (centres unmarked) | 0.878
Cc1ccccc1OC(C)C(=O)Nc1ccc(Br)cc1 (centres unmarked) | -4.02
CCN(Cc1ccccc1)C(=O)Cn1ncc2c3ccccc3n(C)c2c1=O | -0.23
CC(C)CC(NC(=O)N(C)C1CCN(Cc2ccccc2)C1)C(=O)NCC#N (centres unmarked) | -9.15
C=CCn1c(SCC(=O)Nc2ccc(OC)cc2OC)nc2sc(C)cc2c1=O | -4.28
Cc1ccc2c(CNCC(C)c3ccccc3)c(C(=O)O)n(Cc3cccc(F)c3)c2c1 (centres unmarked) | -1.63
COc1ccc(OC)c(C(=O)c2ccc(C(=O)N3CCCCCC3)cc2)c1 | 2.23
Cc1cc(N)n(C(C)(C)C)n1 | -1.03
CC1=C(C(=O)N2CCN(C3CCCCC3)CC2)C2(CCCCC2)OC1=O | -5.58
ONc1nc(-c2ccccc2)cc(-c2ccc(F)cc2)n1 | -1.5
OC(COc1cccc2ccccc12)CN1CCN(CC(O)COc2cccc3ccccc23)CC1 (centres unmarked) | 51.4
COc1ccc(S(=O)(=O)N2CCC(NC(=O)NC3CCC(C)CC3)CC2)cc1 (centres unmarked) | 3.88
Cc1ccc(-c2nc(O)c3c4c(sc3n2)CCCC4)cc1 | 3.69

SMILES | % Inhibition @ 10 uM [%]
CCOc1ccc(C2CC3=NC(C)=C(C(=O)OC)C(c4ccc(C)o4)C3=C(O)C2)cc1OC (centres unmarked) | -1.17
CC1=C(C(=O)Nc2ccccc2C)C(c2ccc(O)cc2)C2=C(O)CC(C)(C)CC2=N1 (centres unmarked) | -5.63
CC(C)CN1C(=O)c2ccc(C(=O)Nc3nccs3)cc2C1=O | 4.42
O=C(CC1COc2ccccc2O1)Nc1ccccc1 (centres unmarked) | 0.161
CCOc1cc2c(cc1OCC)C(C(=O)O)C(c1ccc(OC)c(Br)c1)N(C)C2=O (centres unmarked) | 5.12
COc1ccc(N2C(N)=C(C#N)C(c3ccc(F)cc3)C3=C2CC(C)(C)CC3=O)c(OC)c1 (centres unmarked) | 2.36
O=C(O)CCN1C(=O)c2ccc(NC(=O)CCC3CCCCC3)cc2C1=O | 2.13
CSc1nc(O)c2c(n1)N=C1CCCC(O)=C1C2c1cccc(O)c1 (centres unmarked) | 5.11
COCCNC(=O)CCn1c(=O)c2cccn2c2cccnc21 | 1.22
O=C1/C(=C\c2ccc(O)c(O)c2)SC(=S)N1Cc1ccccc1 | -6.88
Cc1cc(C)n(-c2nc3ccccc3nc2N2CCN(S(=O)(=O)c3ccc(Cl)s3)CC2)n1 | -0.0709
CCc1ccccc1NC(=O)C(C)N(c1ccccc1)S(C)(=O)=O (centres unmarked) | 0.755
Cc1ccc(-c2nc(CS(=O)(=O)CC(=O)NCc3cccc(Cl)c3)c(C)o2)cc1 | -1.89
Cc1nc(N)nc(-c2ccccc2O)n1 | -10.1
COc1ccc(N2CCN(C3CC(=O)N(c4cccc(C(F)(F)F)c4)C3=O)CC2)cc1 (centres unmarked) | 3.91
CCCC[C@@H](NC(=O)[C@@H](CCC)NC(=O)OCc1ccccc1)C(=O)C[N+](=O)[O-] | -0.972
CC1CCc2c(sc(NC(=O)COc3ccc4c(c3)CCC4)c2C(N)=O)C1 (centres unmarked) | -1.95
Cc1ccc(C(=O)Nc2ncc(Cc3cccc(Cl)c3)s2)cc1 | 17.4
CC(=O)Nc1ccc(NC(=O)CN(c2cccc(F)c2)S(C)(=O)=O)cc1 | 8.06
CCCCN(C)c1ccc(NC(C)=O)cc1 | 3.91
O=C(CN1CCCC1)N1c2ccccc2C=Cc2ccccc21 | -6.06
CCN(CC)CCN(C)C1CCC(c2ccccc2)CC1 (centres unmarked) | -2.4
O=C(NCCc1ccccc1)c1ccc2nc(N3CCOCC3)sc2c1 | -0.637
